Data reported in the supplement of paper PMC7826260.
Some of the results follow. One pool of 16,384 single-stranded DNAs met each Rep nickase domain in vitro (1 h at 37 °C, 3 µM enzyme); the outer parts of the 90-letter strands are left off. A value is the log2 ratio of uncut reads to the pool without enzyme; more negative means more cut, near 0 not cut, and no call is made. Reads are scaled to the total, so uncut sequences can rise above 0 when many others are cut.

tested on: T1, Rep nickase domain of chickpea chlorotic dwarf virus; assay: uncleaved DNA left, log2 of reads against the no-enzyme library (log2 ratio); higher = less cleavage (more negative = more Rep cleavage of the k-mer); sequences stand for … in CTCGTCCG…ACCGGAGA
T1 sequence (Rep 1-124, printed without the tag): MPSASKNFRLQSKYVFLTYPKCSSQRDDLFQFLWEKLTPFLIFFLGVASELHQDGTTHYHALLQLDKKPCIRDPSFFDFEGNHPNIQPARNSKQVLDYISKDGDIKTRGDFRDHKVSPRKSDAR
Method: (§1)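 A pool of 90-nt single-stranded DNAs with seven random bases just before the constant AC of the nick site (name = the seven bases) was cut by 3 µM recombinant His6-SUMO-tagged Rep nickase domain (300 nM DNA, 50 mM HEPES pH 8.0, 50 mM NaCl, 1 mM MnCl2, 1 h, 37 °C, three replicates). Uncut DNA was amplified and sequenced.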

Sequence	uncleaved DNA left (log2)
AGCATGC	-0.222
GACTCCA	-1.03
CCTTCTA	-1.44
TTGGGAA	1.35
GATTTTA	0.329
ACGGAAG	-0.322
GCCGTAG	0.0481
AATACGC	-0.564
TCTGGAA	0.718
AAACCTG	0.412
TTTGAAC	-0.205
GCTAGCT	-0.319
AAAGTTG	1.26
CCCGTCT	-1.76
ATTGGGG	0.432
ATGCCGG	0.722
AGGAGGG	0.0792
GGGCCAC	1.83
TTATACT	-3.42
AGCGGAA	0.684

Sequence	uncleaved DNA left (log2)
CATCCAG	-0.446
CCGACCG	-0.611
AAGCGAT	1.56
TGGCTCT	-0.652
GAGACGA	1.85
CCACAAT	-2.04
CCATCTT	-2.58
TTGAGCG	-0.278
TGTAGTG	-0.813
CCTATCC	-0.182
ACCTCCT	-1.43
TAACAGG	0.784
AAGTCTC	-0.795
ATCACAA	-0.29
AGTTGGT	-0.0582
AACTTTA	-2.49
TGCTGAG	-0.0909
TACAACC	-2.42
GCATGTA	-0.0034
CCGGTTT	0.0926

tested on: T2, Rep nickase domain of faba bean necrotic yellows virus; assay: as above
T2 sequence (Rep 1-98, printed without the tag): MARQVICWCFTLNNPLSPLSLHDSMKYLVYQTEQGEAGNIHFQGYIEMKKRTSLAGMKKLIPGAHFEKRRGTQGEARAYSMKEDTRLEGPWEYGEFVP
Method: as §1

Sequence	uncleaved DNA left (log2)
AGCATGC	0.0541
GACTCCA	0.13
CCTTCTA	0.00879
TTGGGAA	-0.0167
GATTTTA	-0.0814
ACGGAAG	0.0323
GCCGTAG	0.00828
AATACGC	0.0206
TCTGGAA	0.0984
AAACCTG	0.0102
TTTGAAC	-0.00509
GCTAGCT	0.0474
AAAGTTG	0.0603
CCCGTCT	-0.218
ATTGGGG	0.1
ATGCCGG	0.0334
AGGAGGG	0.057
GGGCCAC	-0.107
TTATACT	-0.193
AGCGGAA	-0.0358

Sequence	uncleaved DNA left (log2)
CATCCAG	-0.0732
CCGACCG	-0.105
AAGCGAT	-0.056
TGGCTCT	-0.0619
GAGACGA	0.0409
CCACAAT	-0.00138
CCATCTT	0.0557
TTGAGCG	0.0015
TGTAGTG	-0.113
CCTATCC	-0.0583
ACCTCCT	-0.101
TAACAGG	0.104
AAGTCTC	-0.13
ATCACAA	-0.0328
AGTTGGT	-0.04
AACTTTA	-0.0481
TGCTGAG	0.175
TACAACC	0.0529
GCATGTA	0.0158
CCGGTTT	-0.116

tested on: T3, Rep nickase domain of maize striate mosaic virus; assay: as above
T3 sequence (Rep 1-117, printed without the tag): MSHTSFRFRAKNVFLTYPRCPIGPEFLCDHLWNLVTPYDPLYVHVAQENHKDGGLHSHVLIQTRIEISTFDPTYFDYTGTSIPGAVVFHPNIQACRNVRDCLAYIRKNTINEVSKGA
Method: as §1

Sequence	uncleaved DNA left (log2)
AGCATGC	-0.834
GACTCCA	0.891
CCTTCTA	-0.764
TTGGGAA	1.25
GATTTTA	1.32
ACGGAAG	-1.1
GCCGTAG	-0.502
AATACGC	-0.869
TCTGGAA	0.809
AAACCTG	0.979
TTTGAAC	-0.479
GCTAGCT	-0.584
AAAGTTG	1.23
CCCGTCT	-0.65
ATTGGGG	-0.128
ATGCCGG	0.61
AGGAGGG	-0.319
GGGCCAC	2.13
TTATACT	-2.49
AGCGGAA	1.02

Sequence	uncleaved DNA left (log2)
CATCCAG	-0.955
CCGACCG	-1.03
AAGCGAT	1.84
TGGCTCT	0.364
GAGACGA	2
CCACAAT	-0.831
CCATCTT	-0.763
TTGAGCG	-1.24
TGTAGTG	-1.06
CCTATCC	-0.534
ACCTCCT	0.121
TAACAGG	0.916
AAGTCTC	0.00753
ATCACAA	-0.848
AGTTGGT	0.0531
AACTTTA	-0.782
TGCTGAG	-1.08
TACAACC	-0.621
GCATGTA	-0.16
CCGGTTT	1.46

tested on: T4, Rep nickase domain of porcine circovirus 2; assay: as above
T4 sequence (Rep 2-116, printed without the tag): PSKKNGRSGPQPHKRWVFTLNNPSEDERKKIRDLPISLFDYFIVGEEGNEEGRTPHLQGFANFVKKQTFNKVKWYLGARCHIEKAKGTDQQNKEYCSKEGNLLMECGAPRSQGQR
Method: as §1

Sequence	uncleaved DNA left (log2)
AGCATGC	0.228
GACTCCA	-1.44
CCTTCTA	-0.3
TTGGGAA	0.2
GATTTTA	-0.411
ACGGAAG	0.126
GCCGTAG	0.127
AATACGC	-0.0726
TCTGGAA	-0.00688
AAACCTG	0.0306
TTTGAAC	-0.0421
GCTAGCT	0.0128
AAAGTTG	0.227
CCCGTCT	-0.348
ATTGGGG	0.302
ATGCCGG	0.0905
AGGAGGG	0.183
GGGCCAC	0.0798
TTATACT	-3.98
AGCGGAA	-0.238

Sequence	uncleaved DNA left (log2)
CATCCAG	0.00447
CCGACCG	0.00717
AAGCGAT	0.136
TGGCTCT	-0.163
GAGACGA	0.0903
CCACAAT	-0.365
CCATCTT	-3.19
TTGAGCG	0.178
TGTAGTG	0.0155
CCTATCC	-0.0309
ACCTCCT	-0.619
TAACAGG	0.243
AAGTCTC	-3.44
ATCACAA	-0.0113
AGTTGGT	-3.04
AACTTTA	-2.94
TGCTGAG	0.254
TACAACC	-0.887
GCATGTA	-0.0663
CCGGTTT	-0.0974

tested on: T5, Rep nickase domain of tomato golden mosaic virus; assay: as above
T5 sequence (Rep 1-124, printed without the tag): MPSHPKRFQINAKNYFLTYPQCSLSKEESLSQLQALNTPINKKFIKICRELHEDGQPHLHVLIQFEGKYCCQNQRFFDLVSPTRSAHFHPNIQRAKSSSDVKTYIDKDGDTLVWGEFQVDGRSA
Method: as §1

Sequence	uncleaved DNA left (log2)
AGCATGC	-0.0162
GACTCCA	0.134
CCTTCTA	0.0136
TTGGGAA	-0.0634
GATTTTA	0.0462
ACGGAAG	0.0156
GCCGTAG	0.135
AATACGC	-0.17
TCTGGAA	0.0141
AAACCTG	0.0711
TTTGAAC	-0.0789
GCTAGCT	-0.0732
AAAGTTG	0.039
CCCGTCT	-0.176
ATTGGGG	0.189
ATGCCGG	-0.00218
AGGAGGG	0.0743
GGGCCAC	-0.0227
TTATACT	-3.65
AGCGGAA	0.161

Sequence	uncleaved DNA left (log2)
CATCCAG	-0.134
CCGACCG	-0.165
AAGCGAT	0.183
TGGCTCT	-0.183
GAGACGA	0.052
CCACAAT	0.0376
CCATCTT	-0.173
TTGAGCG	0.0429
TGTAGTG	-0.117
CCTATCC	-0.124
ACCTCCT	0.0482
TAACAGG	0.201
AAGTCTC	0.0608
ATCACAA	-0.00443
AGTTGGT	-0.0423
AACTTTA	-0.0586
TGCTGAG	-0.0322
TACAACC	0.0502
GCATGTA	0.104
CCGGTTT	0.0263
